Measurements as given in article PMC4336329 (PLoS ONE, 2015).
The campaign covered roughly 310,000 compounds. About 14,000 (4.5%) showed an effect of 50% or more. Effects have a minus sign here. Some of the results follow.

biological target: human ether-à-go-go-related gene (hERG) potassium channel (human, UniProt Q12809); assay: primary screen, population patch clamp on CHO cells stably expressing hERG
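Note: peak tail current of the secondary pulse compared with the same well before compound.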

Chain of human ether-à-go-go-related gene (hERG) potassium channel (Q12809 whole entry, looked up): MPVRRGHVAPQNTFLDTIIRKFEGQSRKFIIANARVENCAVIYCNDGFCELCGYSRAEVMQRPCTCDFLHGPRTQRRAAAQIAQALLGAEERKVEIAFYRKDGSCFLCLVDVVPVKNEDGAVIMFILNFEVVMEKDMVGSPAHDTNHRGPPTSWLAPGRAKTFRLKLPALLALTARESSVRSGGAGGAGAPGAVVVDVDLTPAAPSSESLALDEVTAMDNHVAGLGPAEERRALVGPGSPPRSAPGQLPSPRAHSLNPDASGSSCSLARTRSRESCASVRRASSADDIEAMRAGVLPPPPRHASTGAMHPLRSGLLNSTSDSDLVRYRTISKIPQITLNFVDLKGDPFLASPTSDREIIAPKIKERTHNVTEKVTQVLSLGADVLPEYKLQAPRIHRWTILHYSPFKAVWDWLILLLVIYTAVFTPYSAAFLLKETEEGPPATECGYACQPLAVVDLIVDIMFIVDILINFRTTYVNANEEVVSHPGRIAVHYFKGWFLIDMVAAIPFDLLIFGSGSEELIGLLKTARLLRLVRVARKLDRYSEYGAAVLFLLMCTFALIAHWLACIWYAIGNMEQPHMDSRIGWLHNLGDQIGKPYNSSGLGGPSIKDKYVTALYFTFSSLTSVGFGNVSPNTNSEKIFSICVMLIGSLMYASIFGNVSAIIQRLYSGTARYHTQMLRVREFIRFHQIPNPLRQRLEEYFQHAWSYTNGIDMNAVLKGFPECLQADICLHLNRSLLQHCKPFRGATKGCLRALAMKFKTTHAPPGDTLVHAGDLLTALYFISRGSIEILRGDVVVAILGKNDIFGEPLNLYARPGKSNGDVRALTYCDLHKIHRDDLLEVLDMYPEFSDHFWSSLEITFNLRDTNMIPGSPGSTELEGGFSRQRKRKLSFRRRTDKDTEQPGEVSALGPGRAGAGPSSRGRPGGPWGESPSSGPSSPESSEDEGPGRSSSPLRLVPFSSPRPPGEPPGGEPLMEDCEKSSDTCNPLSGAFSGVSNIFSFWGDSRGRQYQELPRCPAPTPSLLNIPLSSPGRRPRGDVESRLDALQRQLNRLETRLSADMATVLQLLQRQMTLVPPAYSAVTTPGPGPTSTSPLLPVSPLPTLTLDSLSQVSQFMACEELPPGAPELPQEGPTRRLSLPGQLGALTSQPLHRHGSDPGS

| Structure (SMILES) | hERG current change (%, negative = inhibition) at 10uM [%] |
| --- | --- |
| CC(NC(=O)COC(=O)/C=C/c1cccc(C(F)(F)F)c1)c1ccccc1 (stereo not shown) | 15.2 |
| O=C(Nc1sc2c(c1C(=O)O)CCCC2)c1cccc(Cl)c1 | 61.4 |
| O=C(CSc1nc2ccccc2n1CCc1ccccc1)N1CCOCC1 | -19.2 |
| CC1CCCCN1CCCNC(=O)c1nn(C)c2c1CS(=O)(=O)c1ccccc1-2 (stereo not shown) | -8.49 |
| CCCCNC(=O)CC1N=C2c3ccccc3N=C(SCC(=O)Nc3ccccc3OC)N2C1=O (stereo not shown) | -47.4 |
| Cc1cc([N+](=O)[O-])nn1CC(=O)NC1CCCCC1 | 16 |
| COc1ccc(C(=O)Nc2nc(C)c(C(C)=O)s2)cc1S(=O)(=O)N1CCOCC1 | 0.765 |
| C(=N\n1cnnc1)/C1CCCCC1 | 14.4 |
| Cc1ccc(C(=O)CC(=O)COc2ccc(Cl)cc2C)cc1 | -2.39 |
| CC(=O)N1CCOc2ccc(S(=O)(=O)NCC3CCC(C(=O)NCCC(C)C)CC3)cc21 (stereo not shown) | 13 |
| COc1ccc(-c2cc3c(=O)n(CC(=O)NCCCN4CCC(Cc5ccccc5)CC4)ncn3n2)cc1 | -72.4 |
| O=C(/C=C/c1ccccc1)NC(=S)Nc1ccccc1 | 20.6 |
| Cc1ccc(CNC(=O)CCCOc2cc(=O)n(C)c3ccccc23)o1 | -17.9 |
| CC(=O)c1ccc(N2CCN(Cc3nc4ccccc4[nH]3)CC2)cc1 | -13.2 |
| O=C(NCc1ccccn1)[C@H]1C[C@@H]1[C@H](NP(=O)(c1ccccc1)c1ccccc1)c1ccccc1 | -9 |
| Cc1ccc(S(=O)(=O)N2CC=C(C(=O)NCc3ccccc3)CC2)cc1 | -9.94 |
| CCn1nc(C(=O)NNC(=O)COc2ccccc2C)c2ccccc2c1=O | -16 |
| NC(=O)C1CCN(C(=O)c2cc(S(=O)(=O)N3CCOCC3)c(Cl)cc2Cl)CC1 | 8.61 |
| O=C(NCCO)c1ccccc1O | 15 |
| COc1ccc(C2NC(c3ccc(OC)c(OC)c3OC)C(C)C(=O)C2C)c(OC)c1OC.Cl (stereo not shown) | 8.95 |
| CCc1ccccc1NC(=O)C1CCN(C(=O)c2cccs2)CC1 | -24.3 |
| COc1ccc(NC(=O)Cn2nnc(C(=O)Nc3ccc(F)c(Cl)c3)c2N)cc1 | 25.9 |

| Structure (SMILES) | hERG current change (%, negative = inhibition) at 10uM [%] |
| --- | --- |
| COC(=O)c1ccsc1NC(=O)CCS(=O)(=O)c1ccccc1 | 6.36 |
| CCN(CC)S(=O)(=O)c1ccc(NC(=O)c2ccc(Cl)nc2)cc1 | -22.3 |
| COc1ccc(/C=C(/C#N)C(=O)Nc2ccccc2C)cc1C(=O)O | 16.8 |
| O=C(COc1ccc2ccccc2c1Br)N1CCCC1 | -9.24 |
| COc1ccc(N2CCN(C(=O)c3ccc(NS(=O)(=O)c4ccccc4)cc3)CC2)cc1 | -40.8 |
| COc1ccc(OC)c(Nc2nc(NCc3ccco3)c3ccccc3n2)c1.Cl | -12.2 |
| COc1ccc(CN2CC(C(=O)NCCc3ccc(Cl)cc3)CC2=O)cc1 (stereo not shown) | -16.5 |
| COC(=O)C1=C(C)NC(=O)C1(NC(=O)c1ccncc1)C(F)(F)F (stereo not shown) | 9.15 |
| Cc1ccc(CCNC(=O)C2CCN(C(=O)N(C)C)CC2)cc1 | 2.96 |
| Cc1ccc2nc(SCC(=O)Nc3ccc4c(c3)OCCO4)nc(=O)n2c1 | 0.235 |
| COc1cc(C2CC(=O)c3cnc(NC(=O)COc4ccccc4)nc3C2)cc(OC)c1OC (stereo not shown) | -3.29 |
| CCOC(=O)N1CCN(C(=O)c2ccc(N(C)S(=O)(=O)c3ccc(C)cc3)cc2)CC1 | -33.1 |
| CSc1n[nH]c(-c2ccc(C(F)(F)F)cc2)n1 | 13.2 |
| CC(=O)Nc1ccc(S(=O)(=O)Nc2nccc(/C=C/c3ccccc3F)n2)cc1 | 14.1 |
| N#CCCN(C(=O)CSc1ccc2c(c1)OCCO2)c1ccc(F)cc1 | 3.49 |
| CN1CCCN(C(=O)C2CCC(C(=O)N3CCCN(C)CC3)CC2)CC1.Cl (stereo not shown) | 35.8 |
| Cl.O=C(CSc1nc2cc(Cl)ccc2o1)Nc1ccc(N2CCOCC2)cc1 | 0.61 |
| CCN(CCn1cccn1)C(=O)c1cc(COc2ccc(F)c(F)c2)on1 | -96 |
| CCCC(=O)c1ccc(N2CCN(C(=O)c3ccc(Br)cc3)CC2)c(F)c1 | 2.35 |
| Cn1c(=O)c2ccccc2n(CC(=O)NC2CCCCC2)c1=O | 7.09 |
| COc1cccc(NC(=O)C2CCN(c3ncccn3)CC2)c1 | -11.7 |
| Cc1cccc(NC(=O)c2ccccc2NC(=O)c2ccccc2)n1 | -0.693 |

| Structure (SMILES) | hERG current change (%, negative = inhibition) at 10uM [%] |
| --- | --- |
| COc1ccc(N2CCC(CNC(=S)Nc3c(C)cc(C)cc3C)C2)cc1 (stereo not shown) | 11.4 |
| COC(=O)[C@H](C)NC(=O)Nc1ccc(OC(F)(F)F)cc1 | 10.8 |
| C1CCC(CNc2c3c(nc4nnnn24)CCCC3)CC1 | 4.78 |
| COc1ccc(CC(=O)NC2CC2)cc1OC | 11.4 |
| Cc1ccc(S(=O)(=O)N2CCN(C(=O)c3cc4c(C)nn(-c5ccccc5C)c4s3)CC2)cc1 | -4.39 |
| COC(=O)c1cc(OC)c(OC)cc1NC(=S)N1CCCCC1 | -9.9 |
| CCNC(=O)C1CN(S(=O)(=O)c2ccccc2)CCN1S(=O)(=O)c1ccccc1 (stereo not shown) | -9.54 |
| O=C(CNC(=O)N1CC(=O)Nc2ccccc21)NCc1ccc(Cl)cc1 | 16.9 |
| CC(=O)c1c(C)[nH]c(C(=O)OCCCCN2C(=O)c3ccccc3C2=O)c1C | 9.16 |
| CCOc1ccc(NC(=O)C2CC(=O)N(CC)C(=Nc3ccc4c(c3)OCO4)S2)cc1 (stereo not shown) | 8.36 |
| CCOCCCNc1c2c(nc3cc(-c4ccc(F)cc4)nn13)CCC2 | 10.1 |
| Br.CCn1c(=N)n(CC(=O)C23CC4CC(CC(C4)C2)C3)c2ccccc21 | -32.3 |
| Cc1cc(C)c(C)c(OCCOCCN2CCN(C)CC2)c1 | -1.93 |
| Cc1ccc(Oc2nn[nH]n2)cc1 | 0.395 |
| Cc1ccc(S(=O)(=O)N2CCN(S(C)(=O)=O)C2c2ccccc2)cc1 (stereo not shown) | -37.2 |
| CN1C(=O)C(=Cc2ccc(SC3CCCCC3)o2)C(=O)N(C)C1=O | 0.95 |
| O=C(O)c1ccc(S(=O)(=O)Nc2ccc(F)c(Cl)c2)cc1 | 13.4 |
| Cc1cccc2cc(CN(Cc3cccnc3)C(=O)c3ccccc3F)c(Cl)nc12 | -49.6 |
| CSc1nsc(NC(=O)Nc2ccccc2)n1 | 6.64 |
| CCn1nc(C)c(NS(=O)(=O)c2ccccc2)c1C | 4.32 |
| Cc1c(C)n(C)c2ccc(C(=O)N3CCN(c4ccccn4)CC3)cc12 | -12.7 |
| CCOc1cccc(CNCCc2c(C)[nH]c3ccc(OC(F)(F)F)cc23)c1O.O=C(O)C(=O)O | -51.9 |

| Structure (SMILES) | hERG current change (%, negative = inhibition) at 10uM [%] |
| --- | --- |
| CCOC(=O)c1cnc(SCC)[nH]c1=O | -3.67 |
| O=C(Cn1ncn2c(cc3ccccc32)c1=O)NCc1ccco1 | -1.39 |
| O=c1ccnc(Nc2ccc(Cl)cc2)[nH]1 | -10.3 |
| COC(=O)/C(=C/c1ccc(OC)cc1)NC(=O)c1ccco1 | 9.25 |
| Cc1cccc(OCC(=O)Nc2c3c(nn2C(C)(C)C)CS(=O)(=O)C3)c1 | -4.45 |
| CCCCn1c(N)c(C(=O)OCCOC)c2nc3ccccc3nc21 | -42.4 |
| CCN1C(=O)[C@@H]2[C@H](C1=O)[C@@H]1CC(C(=O)OC)=C[C@@H](C(=O)OC)C3C1=C(C(=O)C3(CC)CC)[C@@H]2C (stereo partly shown) | -1.09 |
| CC(Oc1ccc2ccc(=O)oc2c1)C(=O)NCC1CCC(C(=O)O)CC1 (stereo not shown) | -14.3 |
| COc1ccc(C(=O)Nc2nnc(Cc3ccc(OC)c(OC)c3)s2)c(OC)c1 | -3.97 |
| Cl.O=C(NCCN1CCN(c2ccccc2)CC1)c1cccc(Cl)c1 | -54.2 |
| CC(=O)c1cccc(NC(=O)c2csc3c2CCCCC3)c1 | -3.35 |
| Nc1c(N(CCC2=CCCCC2)C(=O)Cc2ccccc2F)c(=O)[nH]c(=O)n1Cc1ccccc1 | -28.1 |
| Cn1cc(S(=O)(=O)N2CCN(c3cccc(C(F)(F)F)c3)CC2)c(=O)n(C)c1=O | -31.4 |
| Cn1cc([N+](=O)[O-])cc1-c1nc2ccccc2n1C | 0.157 |
| Cc1ccc(S(=O)(=O)Nc2cc3c(cc2N2CCOCC2)n(C)c(=O)c(=O)n3C)cc1 | -9.6 |
| Br.CCCc1cc(-c2nc(-c3ccc(Br)cc3)cs2)ccn1 | 15.3 |
| C=CCN(CC=C)C(=S)NC(=O)c1ccc(OC)cc1 | 12.4 |
| O=C1/C(=C/c2cc3c(cc2Cl)OCO3)N2CCC1CC2 | 1.1 |
| CC(C)(c1ccccc1)c1ccc(OCC2CO2)cc1 (stereo not shown) | 6.41 |
| Cc1ccc(O)c(NC(=O)c2noc3c2CCc2ccccc2-3)c1 | 7.39 |
| CC(NC(=O)Nc1ccccc1)C(c1cccs1)N1CCN(c2ccccc2)CC1 (stereo not shown) | 5.89 |
| O=C(C1=C[C@@H](c2coc3ccccc3c2=O)C[C@@H](OCc2ccc(CO)cc2)O1)N1CCN(Cc2ccccc2)CC1 | -48 |
